# Article PMC4918319
# The chains behind the UniProt entries cited, without tags or fusion partners. Where a name states a change or a piece, a line headed by the entry shows the natural chain unless it says otherwise. A line that says so, or that is headed by a name, gives the form on record, which may keep a tag or linker.
# UniProt P14618: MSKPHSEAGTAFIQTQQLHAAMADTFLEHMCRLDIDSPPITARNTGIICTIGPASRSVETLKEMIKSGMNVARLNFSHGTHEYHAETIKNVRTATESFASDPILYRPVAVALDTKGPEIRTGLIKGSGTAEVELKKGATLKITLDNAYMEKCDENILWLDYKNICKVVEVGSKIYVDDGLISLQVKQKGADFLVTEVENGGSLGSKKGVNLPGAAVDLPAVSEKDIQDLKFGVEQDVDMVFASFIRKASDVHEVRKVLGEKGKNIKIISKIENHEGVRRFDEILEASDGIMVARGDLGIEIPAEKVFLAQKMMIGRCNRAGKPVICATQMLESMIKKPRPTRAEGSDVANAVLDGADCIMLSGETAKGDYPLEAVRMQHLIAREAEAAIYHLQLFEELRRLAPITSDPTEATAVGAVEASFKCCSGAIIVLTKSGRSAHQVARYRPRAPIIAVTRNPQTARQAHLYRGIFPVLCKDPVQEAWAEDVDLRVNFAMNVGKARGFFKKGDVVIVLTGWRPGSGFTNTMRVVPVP
# FLAG-PKM1 (P14618, form named): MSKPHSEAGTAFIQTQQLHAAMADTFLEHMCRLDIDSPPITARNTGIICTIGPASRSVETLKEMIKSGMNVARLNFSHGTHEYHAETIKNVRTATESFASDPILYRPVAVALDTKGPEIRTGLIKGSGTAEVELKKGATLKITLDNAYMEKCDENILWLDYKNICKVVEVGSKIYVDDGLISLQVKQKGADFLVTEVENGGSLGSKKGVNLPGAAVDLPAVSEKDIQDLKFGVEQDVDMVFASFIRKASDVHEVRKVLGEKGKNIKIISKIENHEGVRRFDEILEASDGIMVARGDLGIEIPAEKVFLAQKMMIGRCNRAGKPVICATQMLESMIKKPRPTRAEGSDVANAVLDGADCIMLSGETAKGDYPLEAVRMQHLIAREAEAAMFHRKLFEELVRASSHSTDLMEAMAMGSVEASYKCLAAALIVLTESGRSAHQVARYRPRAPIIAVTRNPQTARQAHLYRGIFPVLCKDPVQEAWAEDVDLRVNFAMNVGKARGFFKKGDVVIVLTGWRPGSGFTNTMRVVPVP
# UniProt P45983: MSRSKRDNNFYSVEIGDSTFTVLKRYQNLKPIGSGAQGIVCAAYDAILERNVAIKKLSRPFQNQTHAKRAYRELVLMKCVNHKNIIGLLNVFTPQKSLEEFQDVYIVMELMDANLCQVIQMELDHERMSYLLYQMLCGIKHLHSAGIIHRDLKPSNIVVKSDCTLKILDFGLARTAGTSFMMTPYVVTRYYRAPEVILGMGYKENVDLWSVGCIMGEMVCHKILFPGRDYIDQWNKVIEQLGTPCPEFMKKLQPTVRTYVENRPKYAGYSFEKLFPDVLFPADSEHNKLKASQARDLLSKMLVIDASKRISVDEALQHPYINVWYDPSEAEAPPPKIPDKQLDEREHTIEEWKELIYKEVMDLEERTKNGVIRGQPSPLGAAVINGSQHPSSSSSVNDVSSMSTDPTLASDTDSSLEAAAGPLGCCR
# Results are given in words; binding and its absence hold for the method and conditions named. For some assays here: In cells and extracts the contact can be indirect. Some entries that bind do so weakly or less than the wild type.
# Experiments:
# FLAG-PKM1 (human) = FLAG-PKM1 (human) (UniProt P14618); assay: co-IP; HEK293T cells co-transfected with FLAG-PKM2 or FLAG-PKM1 and HA-JNK1, HA-JNK2 or empty vector; lysates immunoprecipitated with anti-FLAG M2-affinity gel for at least 4 h at 4 °C, washed four times with lysis buffer (50 mM Tris-HCl pH 7.5, 100 mM NaCl, 0.5% NP-40), western blot
# FLAG-tagged PKM2 (human) = FLAG-tagged PKM2 (human) (UniProt P14618); assay: as above
# recombinant active JNK1 = recombinant active JNK1 (UniProt P45983); assay: pull-down; in vitro pull-down: purified rec. active JNK1 and His-PKM2 incubated, then IP with anti-JNK1 and western blot for PKM2; both purified
# [1] = molecular target: endogenous JNK1 (human (endogenous in Huh7 and PLC5)) (UniProt P45983); assay: co-IP; endogenous proteins; JNK1 immunoprecipitated with anti-JNK1 antibody from lysates of Huh7 and PLC5 cells expressing shNS or shPARP14, western blot for PKM2
substance,measurement,setting,value
HA-JNK1 (from UniProt P45983 1-427) (enzyme),binding,FLAG-PKM1 (human),no binding
same,binding,FLAG-tagged PKM2 (human),binds
HA-JNK2 (from UniProt P45984 1-424) (enzyme),binding,FLAG-tagged PKM2 (human),no binding
His-PKM2 (from UniProt P14618 1-531) (enzyme),binding,recombinant active JNK1,binds
endogenous PKM2 (from UniProt P14618 1-531) (enzyme),binding,[1],binds
